Measurements published in the supplement of paper PMC12217912.
Some of the results follow. Sequences were assembled here from the parent chain. Values near 0.05 are background.

B1: TEV protease; numbered along this chain (parent)
chain: MGESLFKGPRDYNPISSSICHLTNESDGHTTSLYGIGFGPFIITNKHLFRRNNGTLVVQSLHGVFKVKDTTTLQQHLVDGRDMIIIRMPKDFPPFPQKLKFREPQREERICLVTTNFQTKSMSSMVSDTSCTFPSGDGIFWKHWIQTKDGQCGSPLVSTRDGFIVGIHSASNFTNTNNYFTSVPKNFMELLTNQEAQQWVSGWRLNADSVLWGGHKVFMVKPEEPFQPVKEATQL

Variants of: B1
Assay: raw area under fraction-flipped curve 0-4 h after induction (AUC4h, not background-subtracted), DNA-recorder readout of cleavage of the substrate (dimensionless); higher = more cleavage of the substrate by the protease variant
Conditions: temperature: 34 °C; time window: 0-4 h after rhamnose induction
Procedure: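 In vivo DNA recorder in E. coli TOP10(DE3) ΔrhaA at 34 °C. Each TEVp single-site mutant (parent TEVp 0) is paired with a single-site variant of the 7-mer TEVs (canonical ENLYFQ|S). The substrate sits between flexible linkers in a Bxb1-sfGFP-TEVs-SsrA fusion, so cleavage stabilises Bxb1 and speeds flipping of a recombination array, read by NGS. The value is the raw area under the fraction-flipped curve over 0-4 h after rhamnose induction (AUC4h), with ≥20 reads per time point. It is not background-subtracted; inactive controls average about 0.047.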
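Further: Bxb1 expression induced with 0.2% (w/v) L-rhamnose at OD600 near 0.5, cultures sampled hourly, flipped fraction per protease–substrate barcode pair counted by paired-end Illumina sequencing.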

Variant	area with substrate ENAYFQS	area with substrate ENCYFQS	area with substrate ENFYFQS	area with substrate ENGYFQS	area with substrate ENKYFQS	area with substrate ENMYFQS	area with substrate ENNYFQS	area with substrate ENPYFQS	area with substrate ENQYFQS	area with substrate ENRYFQS	area with substrate ENSYFQS	area with substrate ENTYFQS	area with substrate ENWYFQS	area with substrate ENDYFQS	area with substrate ENEYFQS	area with substrate ENIYFQS	area with substrate ENHYFQS	area with substrate ENVYFQS	area with substrate ENYYFQS
F187W	0.0927	0.0631	0.0539	0.0584	0.0532	0.0782	0.0556	0.0488	0.0492	0.0618	0.0592	0.0597	0.0066						
N186C	0.0848		0.0623	0.0521	0.0747		0.0506		0.0606	0.0774				0.0468	0.0739	0.125			
N186S	0.0612			0.0577			0.0571		0.0591	0.0425		0.0687				0.116	0.0864		
N186I	0.0543	0.0685				0.0804	0.0609	0.0578	0.0632			0.045							
L190S	0.0551	0.0654					0.04	0.0533	0.0694	0.0696	0.0661			0.0681	0.0601	0.0962	0.0616	0.0366	0.0475
L190E	0.0525	0.058	0.0707	0.0632	0.067		0.0641	0.0354	0.0589		0.05	0.0615		0.0588	0.0535				0.0507
L190Q	0.0649			0.0613	0.0768			0.0541		0.0733				0.0748		0.0823		0.083	
P184D	0.0547			0.0643			0.0653		0.054		0.0511			0.0389	0.0524	0.044	0.0437		
P184T	0.054	0.06	0.0748	0.068			0.0681	0.051	0.0542		0.0582	0.0668		0.0676	0.0559	0.0878	0.0557		
T174V	0.0612		0.0499	0.0487		0.0672	0.0506		0.0548	0.0604	0.0613	0.053	0.0469	0.0623		0.0843			
N172F	0.0518	0.0547									0.0792			0.0626	0.0581			0.089	
W203K	0.0517	0.0663		0.0649	0.051	0.0596	0.0617	0.0559	0.0838	0.0527	0.0704	0.0574		0.0574	0.058	0.0635	0.0691	0.0636	
W203L	0.0558	0.0669		0.0617			0.0554	0.0529			0.0586	0.0628		0.0506	0.062			0.0517	
V183S	0.0767		0.0608		0.0604			0.0683	0.0569		0.0553	0.0526		0.0627	0.0535	0.114	0.0622	0.076	0.0509
S169Q	0.0514	0.0524	0.0569	0.0555			0.0702	0.0705	0.0596		0.0629	0.0567	0.0676	0.0606	0.0562	0.0723	0.0593	0.057	0.0521
S169G	0.0745		0.064		0.0598	0.0567			0.053	0.0511	0.0478			0.058	0.0322		0.0664	0.0588	0.0592

Variant	area with substrate ENAYFQS	area with substrate ENCYFQS	area with substrate ENFYFQS	area with substrate ENGYFQS	area with substrate ENKYFQS	area with substrate ENMYFQS	area with substrate ENNYFQS	area with substrate ENPYFQS	area with substrate ENQYFQS	area with substrate ENRYFQS	area with substrate ENSYFQS	area with substrate ENTYFQS	area with substrate ENWYFQS	area with substrate ENDYFQS	area with substrate ENEYFQS	area with substrate ENIYFQS	area with substrate ENHYFQS	area with substrate ENVYFQS	area with substrate ENYYFQS
Q194V	0.0542	0.0632		0.063			0.0836	0.0463			0.0664	0.0728	0.0543	0.0553				0.0724	0.0747
Q194K	0.0456	0.08		0.0674	0.0673		0.0752	0.0451	0.0691	0.0578				0.0608					0.0657
Q194M	0.0659	0.0744		0.068	0.069		0.0679		0.0651	0.0448	0.032	0.0413			0.0656	0.0956	0.0602	0.0669	0.0619
G202E	0.0844					0.0566	0.0621		0.0679	0.0798				0.0632	0.0782		0.0698	0.0729	0.0662
Y179I	0.0572		0.0596						0.0486		0.0576			0.0466	0.0597	0.0589	0.0685	0.0406	0.0858
Y179V	0.0503	0.0322	0.0544						0.0581					0.0525		0.0602	0.0538	0.0568	0.165
N175V	0.111			0.0564	0.0659		0.0518	0.0551	0.0634		0.0551	0.0656	0.064	0.0751	0.0671			0.0538	
N175W	0.0779	0.036					0.0563			0.0471					0.0909		0.0524		
N206E	0.0507	0.0678	0.0799	0.0509	0.0736	0.0838	0.0861	0.0515	0.0652	0.0746	0.11	0.0816	0.0414	0.0718	0.0562	0.0874	0.0576	0.0929	0.0658
S182Q	0.0398		0.0539	0.0637	0.0592	0.0306	0.0541		0.0547	0.0317	0.0632	0.0567		0.063	0.0485	0.0292	0.0565	0.0574	
S182G	0.0545			0.0415			0.0638				0.0686	0.0569			0.0657				
S182T	0.0416	0.0704	0.0733				0.0531		0.0572		0.0684	0.0705		0.0687	0.0645				0.0351
E189R	0.0455	0.0317	0.0734	0.0611	0.065	0.0894	0.0621	0.069			0.0524	0.0663			0.0638	0.0608	0.0611	0.0724	0.0375
E189H	0.0655	0.0736		0.0619	0.0373	0.0795	0.0541			0.0453	0.0633			0.0549	0.0615	0.104		0.0757	
E189S	0.0578	0.0551	0.075	0.0723		0.0735			0.0492			0.0441			0.06	0.113	0.055		
